Out of some 76,000 compounds screened, about 1,900 (2.5%) were called active. Inconclusive means that the source gave no clear call. Such entries were picked first, then a sample of the others. Calls come from the whole dose curve; as a rule, active = well fitted inhibition curve with a large enough effect; inconclusive = small, poorly fitted or top-dose-only effect; inactive = flat fitted curve, though single readings scatter. Potencies of inconclusive entries are doubtful fits and often do not repeat.
Each compound was assayed against Luciferin 4-monooxygenase (Photinus pyralis) (UniProt P08659) (assay: Firefly luciferase inhibition profiling of diverse chemical library using quantitative high-throughput screening). Details: purified P. pyralis luciferase, luminescence, biochemical; activity change, negative = inhibition: at 115 µM (top of the series) unless noted.
How it was run: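 Luminescence read by CCD imager after adding enzyme (10nM final) to wells holding compound, titrated in qHTS. Substrates 10uM each D-luciferin and ATP; buffer 50mM Tris acetate pH 7.5, 10mM Mg acetate, Tween-20, BSA.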
% is set by controls: 0 for no effect and ±100 for the full control effect; potency is the fitted concentration of half-maximal effect; tags give direction and shape of the fitted curve.
Note: nearly all actives have a fitted effect of over 65% in size.

UniProt P08659, sequence (P08659 whole entry, looked up): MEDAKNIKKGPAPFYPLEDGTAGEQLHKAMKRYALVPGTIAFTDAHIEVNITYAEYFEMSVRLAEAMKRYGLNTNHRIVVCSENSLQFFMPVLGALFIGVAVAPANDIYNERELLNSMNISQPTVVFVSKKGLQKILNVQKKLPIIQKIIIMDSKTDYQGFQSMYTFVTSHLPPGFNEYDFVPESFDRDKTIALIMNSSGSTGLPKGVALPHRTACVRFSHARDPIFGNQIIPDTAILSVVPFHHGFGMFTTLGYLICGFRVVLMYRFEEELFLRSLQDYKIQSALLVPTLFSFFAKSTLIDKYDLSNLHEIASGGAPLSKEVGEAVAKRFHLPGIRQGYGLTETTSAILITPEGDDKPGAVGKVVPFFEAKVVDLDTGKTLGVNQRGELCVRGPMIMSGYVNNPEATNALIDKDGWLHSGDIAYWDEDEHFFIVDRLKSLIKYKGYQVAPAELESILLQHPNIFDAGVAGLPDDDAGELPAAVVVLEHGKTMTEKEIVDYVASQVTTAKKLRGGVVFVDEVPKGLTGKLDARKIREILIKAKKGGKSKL

SMILES	Potency	activity change, negative = inhibition
CC(c1ccc(-c2ccc(N(C)C)nn2)cc1)N(C)C (centres undefined)	active: 15.8 µM	
OCc1cccc(-c2cc3c(cn2)CN(Cc2ccccc2)CCN3)c1	active: 14.1 µM	
CCN(Cc1ccccc1)C(=O)c1cc(-c2ccncc2)cn1Cc1ccc(C)cc1	inconclusive: 39.8 µM [inhibitor, partial curve]	
CCCCNC(=O)Cc1csc2nc(C)c(-c3cc(C)n(-c4ccc(F)cc4)n3)c(=O)n12		inactive: 0.585%
Cc1ccc(OCCC2CCN(C(=O)C(C)C)C2)cc1 (centres undefined)	inconclusive: 44.7 µM [inhibitor, partial curve]	
C[C@@H]1C(=O)O[C@H]2[C@H]1CC[C@@]1(C)Cc3sc(Nc4ccc(O)cc4)nc3[C@@H](C)[C@H]21	inconclusive: 3.16 µM [inhibitor, full curve, poor fit]	
O=C(CN1C(=O)NC(c2ccccc2Cl)C2=C1COC2=O)Nc1cc(F)cc(F)c1 (centres undefined)	inconclusive: 22.4 µM [inhibitor, full curve]	
O=C1N(C2CCN(C3CCC3)CC2)C(c2ccncc2)C12CCCCC2 (centres undefined)		inactive: 2.73%
Cc1ccc(C2Cn3cnc(C(=O)N4CCC(C(=O)NCCc5ccccc5)CC4)c3CO2)cc1 (centres undefined)	inconclusive: 44.7 µM [inhibitor, partial curve]	
Cc1ccc(NC(=O)N2CCC(CCNC(=O)CCCc3ccccc3)CC2)cc1F	inconclusive: 25.1 µM [inhibitor, partial curve]	
COc1ccc(-c2cc(N3CCCC(NC(=O)c4ccc(C)cc4)C3)n[nH]2)cc1 (centres undefined)	inconclusive: 3.16 µM [inhibitor, full curve]	
NC(=O)Cc1c[nH]c2ncc(-c3cccc(O)c3)cc12	inconclusive: 141 µM [inhibitor, single point]	
COc1ccc(C(=O)N2CCC(c3n[nH]c(=O)n3-c3ccccc3)CC2)cc1		inactive: -0.77%
CNC1CNC(=O)c2cc(-c3ccc(OC)cc3)nn21 (centres undefined)	inconclusive: 39.8 µM [inhibitor, partial curve]	
C=CCNC(=O)c1cnn2ncccc12	active: 50.1 µM	
CS(=O)(=O)N1CCC(OC2CCN(C(=O)c3ccccc3Cl)CC2)CC1	inconclusive: 35.5 µM [inhibitor, partial curve]	
COc1cccc(NC(=O)NC[C@@H]2C=C(C)[C@H](CC(=O)N3CCOCC3)C[C@H]2C(C)C)c1	inconclusive: 89.1 µM [inhibitor, single point]	
Cc1ccc(C2Cn3nnc(C(=O)N4CCC(C(=O)NCCc5ccccc5)CC4)c3CO2)cc1 (centres undefined)	active: 12.6 µM	
COc1ccc(CNC[C@H]2O[C@H](Cc3cc(COc4ccccc4)on3)CC[C@@H]2O)cc1		inactive: 9.87%
Cc1cccc(NC(=O)Nc2ccc(C)n(CC(=O)N(C)C)c2=O)c1	inconclusive: 35.5 µM [inhibitor, partial curve]	
O=C(CC(c1ccccc1)c1ccccc1F)N1CCN(c2ccncc2)CC1 (centres undefined)	inconclusive: 56.2 µM [inhibitor, partial curve]	
CN(Cc1ccccc1)C(=O)Cc1ccc(N(Cc2ccccc2)C(=O)c2ccco2)cc1		inactive: -4.37%
O=C1Nc2ccc(-c3ccc(Cl)cc3)cc2C(=O)N2CC[C@H](NC(=O)N3CCOCC3)[C@@H]12	inconclusive: 39.8 µM [inhibitor, partial curve]	

SMILES	Potency	activity change, negative = inhibition
COC1C(=O)N(CC2CC2)C12CCN(C(=O)C(C)C)CC2 (centres undefined)		inactive: 0.985%
COc1ccccc1-c1nc(N2CCOCC2)cc2c1CN(c1ccccc1)C2=O	inconclusive: 79.4 µM [inhibitor, partial curve]	
Nc1nc2c(s1)C(c1ccc(F)cc1F)CC(=O)N2 (centres undefined)	inconclusive: 35.5 µM [inhibitor, partial curve, poor fit]	
CC1(C)C(=O)N(CC2CCOCC2)[C@H]2CN(Cc3cccs3)C[C@@H]2[S+]1(=O)[O-]		inactive: -6.49% [at 172 µM]
O=C(N1CCC[C@H]1c1nc(-c2ccccc2Cl)no1)C1(c2ccccc2)CC1	active: 22.4 µM	
Cn1cnc(S(=O)(=O)N2CCC(Oc3ccc(-c4noc(C5CC5)n4)cc3)C2)c1 (centres undefined)		inactive: 0.0381%
N#Cc1cccc(-c2cn3c(n2)N(C(=O)c2ccsc2)CCC3)c1	inconclusive: 39.8 µM [inhibitor, partial curve]	
CCN1C(=O)CCC2(C(=O)NCc3cccc(F)c3)CCCC=C12 (centres undefined)	inconclusive: 50.1 µM [inhibitor, partial curve]	
CN(C)c1ccc(C(=O)N2CCCC(n3cc(-c4nc(-c5ccccc5)no4)nn3)C2)cc1 (centres undefined)	inconclusive: 22.4 µM [inhibitor, full curve]	
COc1ccc(C(=O)N2CCC3(CC2)NC(=O)N(c2ccccc2Cl)N3)cc1		inactive: 14.3%
COc1ccccc1CN1CCNc2cc(-c3ccccc3)ncc2C1	inconclusive: 44.7 µM [inhibitor, partial curve]	
CN(Cc1ccccc1)C1CCOC2(CCN(C(=O)NCCc3ccccc3)CC2)C1 (centres undefined)	inconclusive: 44.7 µM [inhibitor, partial curve]	
N#Cc1cccc(C(=O)NC2CCN(c3cc(-c4cccs4)[nH]n3)CC2)c1		inactive: 3.99%
COc1ccc(-c2cc(N3CCCC(NC(=O)c4cccs4)C3)n[nH]2)cc1 (centres undefined)	active: 14.1 µM	
Fc1ccc(-c2ccc(CNCc3ccco3)o2)cc1	inconclusive: 50.1 µM [inhibitor, partial curve]	
CC1=C[C@@H](CNC(=O)CC(C)(C)C)[C@H](C(C)C)C[C@H]1CC(=O)NC1CCCC1		inactive: -5.66% [at 172 µM]
O=C(C1CCC1)N1CCC(Oc2cccnc2)C1 (centres undefined)	inconclusive: 89.1 µM [inhibitor, single point]	
O=C(N[C@H]1CCN2C(=O)c3cc(-c4ccccc4)ccc3NC(=O)[C@H]12)C1CCCC1	inconclusive: 126 µM [inhibitor, single point]	
N#Cc1ccc(C(=O)N2CC[C@@H](CC(=O)O)[C@@H](CC3=NCCc4ccccc43)C2)cc1	inconclusive: 79.4 µM [inhibitor, partial curve]	
O=C(O)c1ccc(CN2Cc3[nH]cnc3C[C@H]2c2nc(-c3ccc4ccccc4c3)no2)cc1	inconclusive: 50.1 µM [inhibitor, partial curve]	
CC(C)(C)c1ccc(C(=O)N2C[C@@H](C(=O)O)[C@H](c3cccc(F)c3)C2)cc1	inconclusive: 79.4 µM [inhibitor, single point]	
COc1cccc(-c2noc(Nc3ccc4c(c3)OCO4)n2)c1	active: 2 µM	
Cc1ccc(CN2C(=O)NC3(CCCN(C(=O)c4ccc5c(c4)OCO5)C3)C2=O)cc1 (centres undefined)		inactive: 0%

SMILES	Potency	activity change, negative = inhibition
COc1ccc(Nc2cc3c(nc2OC)nc(CCc2ccccc2)n3C)cn1	active: 6.31 µM	
Cc1cn2nc(C(=O)NCc3ccccc3C)cc2c(=O)[nH]1	inconclusive: 50.1 µM [inhibitor, partial curve]	
O=C(Nc1ccc(Cl)cc1)N1Cc2[nH]cnc2C[C@H]1c1nc(-c2ccc3ccccc3c2)no1	active: 31.6 µM	
CNC(=O)c1cc(-c2cccc(OC)c2OC)cc2c1OCCN2Cc1cccnc1		inactive: -1.79% [at 172 µM]
Cc1ccc(-c2cc(N3CCC(CNC(=O)c4ccc[nH]4)CC3)n[nH]2)cc1	inconclusive: 39.8 µM [inhibitor, partial curve]	
O=C(c1ccc2cc[nH]c2c1)N1CCC(n2cc(-c3nc(-c4ccccc4)no3)nn2)CC1	inconclusive: 89.1 µM [inhibitor, partial curve]	
Cc1noc2c(NCCN3CCOCC3)cc(-c3cccc(C(F)(F)F)c3)nc12		inactive: 3.02% [at 172 µM]
Cc1cccc(OCC(=O)NCCn2ccn3nc(-c4ccc(C)cc4C)cc3c2=O)c1	inconclusive: 11.2 µM [inhibitor, full curve]	
CCCn1c(C)cnc1CC1CCN(C(=O)C2(c3ccc(OC)cc3)CC2)C1 (centres undefined)	active: 6.31 µM	
COCCN1C(=O)CCC2(C(=O)Nc3cc(OC)cc(OC)c3)CCCC=C12 (centres undefined)	inconclusive: 50.1 µM [inhibitor, partial curve]	
O=C(Nc1cc(F)ccc1Cl)c1cc2n(n1)CC(c1ccc3c(c1)OCO3)OC2 (centres undefined)	inconclusive: 44.7 µM [inhibitor, partial curve]	
CC(C)(C)C(=O)Nc1cnc(-c2cccnc2)nc1	active: 28.2 µM	
CN1CCCCCCN(C(=O)NC2CCCCC2)[C@H]2CCC[C@H]2C1=O	inconclusive: 50.1 µM [inhibitor, partial curve]	
Cn1cc(-c2cccc(O)c2)c2nc(COc3ccc(Cl)cc3)cn2c1=O		inactive: -7.48% [at 172 µM]
CCOc1cc(=O)n2c(c1C(=O)Nc1ccc(OC)cc1OC)CCCC2		inactive: 0%
Cc1ccc(C2Cn3nnc(C(=O)N4CCC(C(=O)NCc5cc(F)ccc5F)CC4)c3CO2)cc1 (centres undefined)	active: 35.5 µM	
O[C@H]1CCCC[C@@H]1NC1CCN(c2nc3ccc(Cl)cc3s2)CC1	inconclusive: 35.5 µM [inhibitor, full curve]	
Cc1noc(C)c1S(=O)(=O)N1CCC(C(=O)N2CCCC2c2nc(C3CCOCC3)no2)CC1 (centres undefined)	inconclusive: 50.1 µM [inhibitor, partial curve]	
O=C1Nc2ccc(-c3cccc(C(F)(F)F)c3)cc2C(=O)N2CCN(C(=O)c3ccccc3)C[C@H]12	inconclusive: 56.2 µM [inhibitor, partial curve]	
O=C(Nc1ccc(F)cc1)c1cc(-c2ccc[nH]2)n[nH]1	active: 5.01 µM	
Cc1ccc(C2NC(=O)N(CC(=O)Nc3ccc(Br)cc3F)C3=C2C(=O)OC3)cc1 (centres undefined)		inactive: -4.5%
CC(C)NC(=O)CCC1CCN(C(=O)c2ccccc2F)CC1	active: 39.8 µM	
COc1ccc2cc(C3CN(CCC(=O)NC(C)(C)C)CCO3)ccc2c1 (centres undefined)	inconclusive: 44.7 µM [inhibitor, partial curve]	

— PubChem BioAssay AID1347043 (National Center for Advancing Translational Sciences (NCATS), 2019)
